Hit rate of the full screen: of about 420,000 compounds, about 50,000 (12%) were called active. Inconclusive results, whose numbers are uncertain, are shown with a selection of clear calls. Calls come from the whole dose curve; as a rule, active = well fitted inhibition curve with a large enough effect; inconclusive = small, poorly fitted or top-dose-only effect; inactive = flat fitted curve, though single readings scatter. Potencies of inconclusive entries are left out as doubtful fits.
Test: qHTS for Inhibitors of human tyrosyl-DNA phosphodiesterase 1 (TDP1): qHTS in cells in presence of CPT; note: nearly all actives have a fitted effect of over 55% in size
Conditions: chicken DT40 Tdp1-/-;hTDP1 cells + 20 nM CPT, ATP luminescence, 48 h; activity change, negative = growth inhibition: at 46.2 µM (top of the series) unless noted
Summary of the method: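 Chicken DT40 Tdp1-/- cells complemented with human TDP1, 400 cells/well, exposed to compounds plus 20 nM camptothecin for at least 48 h at 37 C; viability read as ATP content by CellTiter-Glo luminescence.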
In the case of CC(=O)Nc1ccc(NCN2C(=O)C3C4CCC(C4)C3C2=O)cc1 (stereo unspecified), the Potency is reported as inconclusive [inhibitor, single point]. For O=C(c1ccco1)N1CCN(c2nc(C3CC3)nc3c2nnn3Cc2ccccc2Cl)CC1, the Potency was inconclusive [inhibitor, single point]. For CCCCCn1c(CN2CCN(c3cc(Cl)ccc3C)CC2)nc2c1c(=O)[nH]c(=O)n2C, the Potency was active: 14.1 µM. In the case of Cc1oc(-c2ccccc2Cl)nc1CN1CCCCC1c1cccnc1 (stereo unspecified), the “activity change, negative = growth inhibition” value is reported as inactive: -18.1%. In the case of Cc1ccc(-c2nc3cc(N)ccc3o2)cc1, the “activity change, negative = growth inhibition” value is reported as inactive: -10.7%. For CCCCCN(C(=O)NC(=O)Nc1ccc(C)cc1)S(=O)(=O)c1ccccc1, the Potency was inconclusive [inhibitor, single point]. With NNC(=O)Cn1c2ccccc2c2ccccc21 the Potency was inconclusive [inhibitor, single point]. For COc1cccc(-c2noc(-c3ccc(Cl)nc3)n2)c1, the Potency was inconclusive [inhibitor, single point]. With CC1Cc2ccccc2N1C(=O)COC(=O)c1ccc([N+](=O)[O-])o1 (stereo unspecified) the Potency was inconclusive [inhibitor, partial curve]. With O=C(c1cc(COc2ccc(F)cc2Cl)on1)N1CCCCCCC1 the Potency was inconclusive [inhibitor, single point]. In the case of CN1CCN(c2ncc3nc(-c4cccs4)c(=O)n(C[C@H]4CCCO4)c3n2)CC1, the Potency is reported as active: 11.6 µM. For Clc1ccc(OCCCNCc2ccccc2)c2ccccc12, the Potency was inconclusive [inhibitor, partial curve, poor fit]. With COc1ccc(C2=CC(c3ccc(N(C)C)cc3)n3nnnc3N2)cc1 (stereo unspecified) the Potency was inconclusive [inhibitor, single point]. For CC(=O)OCC(=O)C1(O)CCC2C3CCC4=CC(=O)CCC4(C)C3(Cl)C(O)CC21C (stereo unspecified), the Potency was inconclusive [inhibitor, partial curve, poor fit]. In the case of O=[N+]([O-])c1cc(S(=O)(=O)Nc2cccc(Cl)c2)ccc1N=Nc1c(O)[nH]c2ccccc12, the Potency is reported as active: 20.6 µM. For CCOC(=O)C1=C(C)NC(C)=C(C(=O)OC)[C@H]1c1cccc([N+](=O)[O-])c1, the Potency was active: 26.6 µM. For CCOC(=O)c1cc(NC(=O)N(CC)C2CCCCC2)c(C)nc1C, the Potency was inconclusive [inhibitor, single point]. For C[C@H](NC(=O)C1CCN(S(=O)(=O)c2ccccc2)CC1)C(=O)NCc1ccc(Cl)cc1Cl, the Potency was inconclusive [inhibitor, partial curve, poor fit]. With O=C(CSc1c2c(nc3ccc(Cl)cc13)CCCC2)N1CCN(C(=O)c2ccco2)CC1 the Potency was active: 14.6 µM. For O=C(NCc1cc(C(F)(F)F)cc(C(F)(F)F)c1)C1CC(c2c(Cl)cccc2Cl)=NO1 (stereo unspecified), the Potency was inconclusive [inhibitor, single point]. With O=S(=O)(Nc1nc2ccccc2nc1Nc1ccc2c(c1)OCO2)c1ccc(F)cc1 the Potency was active: 18.4 µM. With O=C(Nc1ccccc1C(=O)N1CCCC1)c1cccc(S(=O)(=O)N2CCCCC2)c1 the “activity change, negative = growth inhibition” value was inactive: -23.4%. For Cc1ccccc1C(=O)NC1CC2CCCC(C1)N2CC(C)C (stereo unspecified), the Potency was inconclusive [inhibitor, single point]. For CCc1noc(C)c1C(=O)OCC(=O)Nc1cccc(C)c1, the Potency was inconclusive [inhibitor, single point]. With COc1ccc(N2CCN(CCNC(=O)c3ccc4c(c3)[nH]c(=S)n3c5ccccc5nc43)CC2)cc1 the Potency was active: 4.61 µM. With CC1(C(=O)Nc2ccccc2)Cc2c(-c3cccc(C(N)=O)c3)ccnc2O1 (stereo unspecified) the Potency was inconclusive [inhibitor, partial curve]. For Cc1c(CNC2CCCCCC2)c(C(=O)O)c(C)n1Cc1c(F)cccc1Cl, the Potency was inconclusive [inhibitor, single point]. With CCN(CC)S(=O)(=O)c1ccc(NC(=O)Cc2cccs2)cc1 the Potency was inconclusive [inhibitor, single point]. For COc1ccccc1NC(=O)C(C)OC(=O)CCCc1c[nH]c2ccccc12 (stereo unspecified), the “activity change, negative = growth inhibition” value was inactive: 2.77%. For COc1ccc(CCNC(=O)CSc2nc(=O)[nH]c3c2CCC3)cc1OC, the “activity change, negative = growth inhibition” value was inactive: 22.4%. With CN(C)CCN1C(=O)C(O)=C(C(=O)c2cc3ccccc3o2)C1c1ccc(N(C)C)cc1 (stereo unspecified) the “activity change, negative = growth inhibition” value was inactive: 2.69%. In the case of COc1ccccc1N1CCN(C(=O)C2CCCCN2S(=O)(=O)c2ccc(C)cc2)CC1 (stereo unspecified), the Potency is reported as active: 18.4 µM. With COC(=O)c1sc(S(=O)(=O)N2CCCCC2C(=O)O)c(C(=O)OC)c1C (stereo unspecified) the Potency was inconclusive [inhibitor, partial curve]. In the case of CCCCN(CCCC)Cc1cc(=O)oc2cc(OC)ccc12, the Potency is reported as inconclusive [inhibitor, single point]. With CN1C[C@@H]2[C@@H]3C(=O)N(Cc4ccccc4)C(=O)[C@@H]3[C@](Cc3ccccc3)(C1=O)N2C(=O)c1ccc(Br)cc1 the “activity change, negative = growth inhibition” value was inactive: -7.24%. In the case of COC(=O)c1ccc(N/C(=N/S(=O)(=O)c2ccccc2)c2ccccc2)cc1, the Potency is reported as inconclusive [inhibitor, single point]. For O=C(CSc1ccc([N+](=O)[O-])cc1)Nc1cccc(S(=O)(=O)Nc2ccccc2F)c1, the Potency was active: 9.2 µM. For COc1ccc(-c2cc(=O)c3ccccc3o2)cc1, the Potency was inconclusive [inhibitor, single point]. With COc1ccc(-n2c(=O)c(-c3ccccc3)nc3cnc(N4CCNCC4)nc32)cc1 the “activity change, negative = growth inhibition” value was inactive: -8.74%. In the case of Cc1nc(-c2cc(-c3nc(-c4cc(C(F)(F)F)cc(C(F)(F)F)c4)no3)no2)cs1, the Potency is reported as inconclusive [inhibitor, single point]. For CCN(CC)S(=O)(=O)c1ccc2c(c1)nc(SCC(=O)N1CCCCCC1)n2-c1ccc(OC)cc1, the Potency was active: 14.6 µM. With Cc1ccc(S(=O)(=O)N2CCCN(c3nc4cc(C)ccc4cc3C#N)CC2)cc1 the Potency was inconclusive [inhibitor, single point]. With CCOC(=O)c1cc(-c2ccccc2)nn1CC1CC(c2ccc(Cl)cc2)=NO1 (stereo unspecified) the Potency was inconclusive [inhibitor, single point]. With COC(=O)[C@H](Cc1ccccc1)N(Cc1ccc(C)cc1)S(C)(=O)=O the Potency was inconclusive [inhibitor, single point]. In the case of CCOC(=O)[C@]12CCCC=C1N(Cc1ccc(Cl)cc1Cl)C(=O)[C@H](CC(=O)NCc1ccccc1)C2, the Potency is reported as inconclusive [inhibitor, single point]. In the case of CC1CCCN(CCCN2C(=O)C3C(C(=O)Nc4cccc(Cl)c4)C4C=CC3(O4)C2C(=O)NC2CCCCC2)C1 (stereo unspecified), the “activity change, negative = growth inhibition” value is reported as inactive: 1.19%. In the case of Cc1cc(C)c(CN2CCCC(CNC(=O)c3ccc(F)cc3)C2)c(-n2cccn2)c1 (stereo unspecified), the Potency is reported as inconclusive [inhibitor, single point]. For Cc1cc(C)nc(N/N=C/C2=C(N3CCOCC3)C(=C\c3ccc(Cl)cc3)/CC2)n1, the Potency was active: 23.1 µM. In the case of COc1ccc(CNC(=S)N/N=C/c2ccc(O)c(OC)c2)cc1, the “activity change, negative = growth inhibition” value is reported as inactive: -8.25%. For Cc1ccc(C(=O)C(C)OC(=O)Cc2n[nH]c(=O)c3ccccc23)cc1C (stereo unspecified), the Potency was inconclusive [inhibitor, single point]. For O=C(CN1CCN(c2ccccc2F)CC1)c1c[nH]c2ccccc12, the Potency was inconclusive [inhibitor, single point]. For CC(C)(C)NC(=O)CN(Cc1cccs1)C(=O)CCN1CCc2ccccc21, the Potency was inconclusive [inhibitor, partial curve]. For COC(=O)c1c(N2C(=O)CC(Sc3ccccc3C(=O)O)C2=O)sc2c1CCCC2 (stereo unspecified), the Potency was inconclusive [inhibitor, single point]. With COC(=O)c1ccc(NC(=S)NC2CC(C)(C)NC(C)(C)C2)cc1 the Potency was inconclusive [inhibitor, single point]. With COc1ccc(N2CCN(C(=O)Cn3cnc4sc(C)c(S(=O)(=O)N5CCC(C)CC5)c4c3=O)CC2)cc1 the Potency was inconclusive [inhibitor, single point]. With CCOC(=O)c1ccc(N2C(=O)c3n[nH]c(C)c3C2c2ccc(O)c(OC)c2)cc1 (stereo unspecified) the Potency was inconclusive [inhibitor, single point]. In the case of O=C(Nc1cccc(S(=O)(=O)N2CCOCC2)c1)C1CCCN(C(=O)c2ccc(Cl)cc2)C1 (stereo unspecified), the Potency is reported as inconclusive [inhibitor, partial curve]. For CCOC(=O)C1CCCN(C(=O)CCCn2nc(C)n3c(cc4sccc43)c2=O)C1 (stereo unspecified), the “activity change, negative = growth inhibition” value was inactive: -6.09%. With COc1ccc(OC)c(N2Cc3ccccc3C2)c1 the Potency was inconclusive [inhibitor, single point]. With CC(=O)NCCC1CCN(c2nc3nonc3nc2N(C)Cc2ccccc2)CC1 the Potency was inconclusive [inhibitor, single point]. With CC1(C(=O)NCc2ccco2)CCN1C(=O)C1(c2ccccc2)CC1 (stereo unspecified) the Potency was active: 4.61 µM. For O=C(CSc1nccn1-c1ccc(Cl)cc1)N1CCCc2ccccc21, the Potency was inconclusive [inhibitor, single point]. With CCOC(=O)c1sc2nc(CC(C)C)c3c(c2c1N)CCC3 the “activity change, negative = growth inhibition” value was inactive: -0.237%. In the case of Cc1cccc(Cn2nnc3ccccc32)c1O, the Potency is reported as inconclusive [inhibitor, single point]. For Cc1ccc(C)c(/C=C2\N=C(c3ccccc3F)OC2=O)c1, the activity change, negative = growth inhibition was inconclusive: -30.5% [inhibitor]. With Cc1cccc(CS(=O)(=O)CC2Nc3ccc(C(=O)NCc4ccccc4)cc3NC2=O)c1 (stereo unspecified) the Potency was active: 11.6 µM.
% is set by controls: 0 for no effect and ±100 for the full control effect; potency is the fitted concentration of half-maximal effect; tags give direction and shape of the fitted curve.
